Measurements as given in PubChem BioAssay AID624296 (National Center for Advancing Translational Sciences (NCATS), 2012).
Hit rate of the full screen: of about 350,000 compounds, about 9,900 (2.8%) were called active. Inconclusive results, whose numbers are uncertain, are shown with a selection of clear calls. Calls come from the whole dose curve; as a rule, active = well fitted activation curve with a large enough effect; inconclusive = small, poorly fitted or top-dose-only effect; inactive = no such curve, though single readings can be large or run the other way. Potencies of inconclusive entries are left out as doubtful fits.
Potency is the fitted concentration of half-maximal effect; tags give direction and shape of the fitted curve.

Assay: A quantitative high throughput screen for small molecules that induce DNA re-replication in MCF 10a normal breast cells. For activity, positive = re-replication: % of control where 0% means no effect. Note: nearly all actives have a fitted effect of over 50% in size.
Settings: MCF 10A DNA re-replication, Hoechst nuclear intensity, 48 h; activity, positive = re-replication: at 46.1 µM (top of the series)
For `CCOc1ccc(Nc2cc(C)nc3c(C)cccc23)cc1`, the “activity, positive = re-replication” value was inactive: 11.8%. In the case of `N#Cc1cc2c(=O)n3ccccc3nc2n(Cc2cccnc2)c1=O`, the Potency is reported as active: 11.6 µM. In the case of `COc1ccccc1C(=O)Nc1cc2cc(Br)ccc2oc1=O`, the Potency is reported as inconclusive [activator, single point]. With `Cc1cc(C)nc(N/N=C/c2cccc([N+](=O)[O-])c2)n1` the “activity, positive = re-replication” value was inactive: -2.19%. In the case of `Cc1cc(N)n2ncc(-c3ccc(Cl)cc3)c2n1`, the Potency is reported as inconclusive [activator, partial curve]. For `COc1ccc(CN2CCN(CCc3ccccc3)C(CCO)C2)c(Cl)c1OC` (centres undefined), the Potency was inconclusive [activator, partial curve, poor fit]. With `Cc1oc(-c2ccc(Cl)cc2)cc1C(=O)/C(C#N)=C/Nc1cccc(OC(F)(F)F)c1` the Potency was inconclusive [activator, single point]. In the case of `O=C(COc1ccccc1)NC(=S)Nc1cccc2cc(O)ccc12`, the Potency is reported as inconclusive [activator, single point]. With `C=CCc1c(C)nc(-c2ccccc2)nc1Nc1ccccc1O` the Potency was active: 23.1 µM. For `COC(=O)c1c(/N=C/N(C)C)sc2c1CCN(c1ncc(C(F)(F)F)cc1Cl)C2`, the Potency was inconclusive [activator, single point]. With `CN(Cc1cnccn1)Cc1cn(Cc2ccccc2)nc1-c1ccc2c(c1)OCO2` the “activity, positive = re-replication” value was inactive: -2.58%. With `FC(F)(F)c1cccc(NC(=S)NC2CCCC2)c1` the Potency was inconclusive [activator, single point]. With `COC(=O)C1CN(S(=O)(=O)c2ccccc2)CCN1S(=O)(=O)c1ccccc1` (centres undefined) the Potency was inconclusive [activator, partial curve, poor fit]. In the case of `Cc1oc(-c2ccccc2F)nc1CS(=O)CC(=O)NCc1ccc(F)cc1` (centres undefined), the “activity, positive = re-replication” value is reported as inactive: 0.192%. For `NC(=O)c1nsc(C(=O)N(Cc2ccco2)C(C(=O)NCc2ccc(F)cc2)c2ccc(O)cc2)c1N` (centres undefined), the “activity, positive = re-replication” value was inactive: 13.1%. For `Cc1ccc(Nc2nc(CSc3nnc(-c4ccncc4)n3-c3ccccc3C)cs2)cc1`, the Potency was inconclusive [activator, partial curve, poor fit]. For `CC1(C)CC(=O)C(C(C2=C(O)CC(C)(C)CC2=O)c2ccc([N+](=O)[O-])cc2)C(=O)C1` (centres undefined), the “activity, positive = re-replication” value was inactive: -2.57%. With `CCOc1ccc(NC(=S)NC(C)c2cccs2)cc1` (centres undefined) the Potency was inconclusive [activator, single point]. With `COCCn1c(SCC(=O)Nc2ccc(S(N)(=O)=O)cc2)nc2ccccc21` the Potency was inconclusive [activator, full curve, poor fit]. With `O=C(Cc1ccc(Cl)cc1)Oc1cccc2cccnc12` the Potency was inconclusive [activator, partial curve]. With `O=C(c1cc(-c2cccc(Cl)c2)nc2ccccc12)N1CCN(c2ccccn2)CC1` the Potency was inconclusive [activator, partial curve, poor fit]. For `Cc1cc(NC(=O)CCN2C(=O)C3C4CCC(C4)C3C2=O)c(C)cc1Br` (centres undefined), the “activity, positive = re-replication” value was inactive: 4.18%. In the case of `Cc1cccc(-n2c(C)c(C)c3c(N)ncnc32)c1`, the Potency is reported as inconclusive [activator, single point]. For `Cc1cccc(/C=C/c2nc3ccccc3c(=O)n2Cc2ccccc2)c1`, the Potency was inconclusive [activator, single point]. With `COc1ccc(NC(=O)CN(C)C(=O)c2cc(C)on2)cc1` the “activity, positive = re-replication” value was inactive: -5.98%. With `COc1ccc(/C=N/Nc2nc(-c3cccc(S(=O)(=O)N4CCCC4)c3)cs2)c(OC)c1` the Potency was inconclusive [activator, partial curve, poor fit]. For `COc1ccc(NC(=O)COC(=O)C2CC(=O)N(Cc3ccc(C)cc3)C2)cc1` (centres undefined), the Potency was inconclusive [activator, partial curve, poor fit]. For `Cc1cc(C)c(-n2c(SCC(=O)N3CCOCC3)n[nH]c2=O)c(C)c1`, the Potency was inconclusive [activator, partial curve, poor fit]. With `CC(C)c1ccc(/C=c2\sc3n(c2=O)C(N)=C(C#N)C(c2ccc(C(C)C)cc2)C=3C(N)=O)cc1` (centres undefined) the Potency was active: 1.3 µM. With `CCCc1sc(N/N=C/c2ccccn2)nc1-c1ccc(F)cc1` the “activity, positive = re-replication” value was inactive: -0.336%. With `COc1nc(Nc2nc3ccccc3c(=O)[nH]2)nc2ccc(C)cc12` the Potency was inconclusive [activator, full curve]. In the case of `CC1CCCCC12NC(=O)N(CC(=O)OCc1ccccc1Cl)C2=O` (centres undefined), the Potency is reported as inconclusive [activator, partial curve, poor fit]. In the case of `O=C(NC(=S)Nc1ccc(CN2CCOCC2)cc1)c1ccc(-c2ccc(Cl)cc2)o1`, the “activity, positive = re-replication” value is reported as inactive: 9.18%. For `COc1ccccc1NC(=O)CSc1nnc(C2CCCCC2)n1-c1ccccc1`, the Potency was inconclusive [activator, partial curve, poor fit]. For `O=C(COC(=O)COc1ccccc1)Nc1ccc(Br)cc1Br`, the “activity, positive = re-replication” value was inactive: 1.64%. In the case of `C/C(=N\NC(=O)c1ccco1)c1ccc(C(=O)O)s1`, the “activity, positive = re-replication” value is reported as inactive: -6.6%. For `C[C@@H](NC(=O)c1nc[nH]c1C(=O)NCC(=O)OCc1ccccc1)c1ccccc1`, the “activity, positive = re-replication” value was inactive: 4.87%. In the case of `C/C(=N\NC(=O)c1ccccc1Cl)c1ccccn1`, the Potency is reported as inconclusive [activator, single point]. In the case of `CCOC(=O)COc1ccc(/C=C/[N+](=O)[O-])c(OCC(=O)OCC)c1`, the Potency is reported as inconclusive [activator, single point]. In the case of `O=C(NC1CCCCC1)C1Cc2ccccc2CN1S(=O)(=O)c1ccc(F)cc1` (centres undefined), the Potency is reported as inconclusive [activator, single point]. In the case of `NS(=O)(=O)c1ccc(N2N=C(c3ccccc3)CC2c2ccccc2)cc1` (centres undefined), the Potency is reported as active: 8.2 µM. For `COc1cc(NC(=O)C2CC(c3c(F)cccc3Cl)=NO2)cc(OC)c1OC` (centres undefined), the Potency was inconclusive [activator, single point]. For `COc1ccccc1NS(=O)(=O)c1cccc(C(=O)OCc2nc3ccccc3s2)c1`, the “activity, positive = re-replication” value was inactive: 5.01%. With `Cc1cc(-c2nc3ncccc3o2)ccc1N` the Potency was inconclusive [activator, partial curve, poor fit]. For `CC(=O)Nc1cc2ccccc2oc1=O`, the “activity, positive = re-replication” value was inactive: -5.1%. For `CN(C)C(=O)c1cn(-c2ccccc2)nc1-c1cc2ccccc2o1`, the Potency was inconclusive [activator, single point]. In the case of `CN1CCC(OC(=O)C23CCC(C)(C(=O)O2)C3(C)C)CC1` (centres undefined), the Potency is reported as inconclusive [activator, full curve, poor fit]. In the case of `CN1CCC2(CC1)N=C(c1ccc(F)cc1)C(=S)N2C(=O)c1ccc(C(C)(C)C)cc1`, the Potency is reported as active: 8.2 µM. For `CCCCOC(=O)c1ccc(NC(=S)N2CCN(c3ncc4c(=O)c(C(=O)O)cn(CC)c4n3)CC2)cc1`, the “activity, positive = re-replication” value was inactive: 3.73%. For `CCCc1nc2ccccc2c(=O)n1NC(=O)c1c(O)c2cccc3c2n(c1=O)CCC3`, the “activity, positive = re-replication” value was inactive: 2.55%. For `CCOc1cc(/C=N\Nc2ncc(F)c(N3CCOCC3)n2)ccc1Oc1nc(Cl)ncc1F`, the Potency was inconclusive [activator, single point]. In the case of `C=CCO/N=C(/C)c1c(O)c(CC)c(-c2ccccc2)n(-c2ccccc2)c1=O`, the Potency is reported as inconclusive [activator, partial curve, poor fit]. For `COc1ccc(CNC(=O)Cc2ccc(-c3ccccc3)cc2)cc1OC`, the Potency was active: 11.6 µM. For `CC(C)NC(=O)Nc1cccc2c1O[C@@H](CN(C)S(=O)(=O)c1ccc(F)cc1)[C@@H](C)CN([C@H](C)CO)C2=O`, the Potency was inconclusive [activator, full curve, poor fit]. In the case of `S=c1[nH]nc(-c2cccs2)n1/N=C/c1cn(-c2ccccc2)nc1-c1cccs1`, the Potency is reported as inconclusive [activator, single point]. In the case of `COc1ccc(-c2csc(NCCc3nc4cc(C(=O)NCCCO)ccc4n3Cc3ccc(C)cc3)n2)cc1`, the Potency is reported as inconclusive [activator, single point]. In the case of `Cc1nc2c(sc(=S)n2Cc2ccco2)c(=O)n1CC(=O)Nc1ccccc1`, the Potency is reported as inconclusive [activator, partial curve, poor fit]. With `COc1ccc(C=NNC(=O)c2ccccc2NS(=O)(=O)c2cccs2)cc1O` the “activity, positive = re-replication” value was inactive: -6.73%. For `O=[N+]([O-])c1ccc(CNc2cccc(Cl)c2)s1`, the “activity, positive = re-replication” value was inactive: -1.09%. In the case of `CCOc1ccc(NC(=O)Nc2ccc3nsnc3c2)cc1`, the “activity, positive = re-replication” value is reported as inactive: 0.639%. With `CCCNCc1cc(Br)ccc1OCC(=O)NCCc1ccccc1` the Potency was inconclusive [activator, full curve, poor fit]. With `Cc1cccc(NC(=O)CCc2nc3sc4c(c3c(=O)[nH]2)CCCC4)n1` the Potency was inconclusive [activator, single point]. In the case of `O=C(NCCOc1ccccc1Cl)C(=O)c1c[nH]c2ccccc12`, the Potency is reported as inconclusive [activator, single point]. For `CC(=O)C1=C(O)C(=O)N(CC(=O)O)C1c1ccccc1Cl` (centres undefined), the “activity, positive = re-replication” value was inactive: 8.8%. With `Cc1noc(C)c1COc1cccc(C(=O)Nc2ccc3c(c2)OCO3)c1` the Potency was inconclusive [activator, single point]. For `CCNc1nc(CSc2ccccc2)nc2sc(C)c(C)c12`, the Potency was inconclusive [activator, single point]. For `COc1ccc(-c2ocnc2C(=O)Nc2ccccc2N2CCCCC2)cc1`, the Potency was inconclusive [activator, full curve]. For `COC(=O)Nc1nc2ccc(C(=O)c3ccccc3)cc2[nH]1`, the Potency was inconclusive [activator, full curve]. In the case of `CCCCN1C(=N)N([C@@H](C)CN2CCC[C@H]2CN2C(N)=NC[C@@H]2Cc2ccccc2)C[C@H]1Cc1ccccc1`, the “activity, positive = re-replication” value is reported as inactive: -14.6%.
